We go through 57 compounds from the supplement of paper PMC9446081.

Out of some 39,000 compounds screened, about 220 (0.56%) showed activity. Some of the results follow.
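Further: static incubation at 37 °C against the wild-type strain, values averaged over two biological replicates.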

In this experiment the test system is Escherichia coli K-12 BW25113. Description: relative growth (OD600 normalised to plate interquartile mean) (fraction); higher = less growth inhibition, active = 0.2 or less. The conditions noted are these: 50 µM; LB; incubation time: overnight (16-24 h).
For `C[C@H]1CN([C@@H](C)CO)C(=O)c2cc(NC(=O)Nc3ccc(C(F)(F)F)cc3)ccc2O[C@H]1CN(C)C(=O)Nc1ccc2c(c1)OCO2`, the relative growth was inactive: 1.04. In the case of `CCn1c(=S)[nH]c2ccccc21`, the relative growth is inactive: 0.895. The value for `CC(=O)N1CCCC(=O)CC1` was inactive: 1.02.

As to `O=C(N[C@H](c1ccc(Cl)cc1)c1cnccn1)C1CCN(Cc2ccc(Oc3ccccc3)cc2)CC1`, the relative growth is inactive: 1.02. Take `COc1ccc2c3c([nH]c2c1)[C@@H](CO)N(C[C@]13CN(Cc2ccccc2F)C1)S(=O)(=O)c1cn(cn1)C`: the relative growth was inactive: 0.993. The value for `C[C@H]1CN([C@@H](C)CO)C(=O)Cc2cc(NC(=O)Nc3cccc4ccccc34)ccc2O[C@H]1CN(C)Cc1ccncc1` was inactive: 1.02; that for `O=C(N[C@@H]1CC[C@@H](CC(=O)N2CCOCC2)O[C@@H]1CO)c1ccccn1` was inactive: 0.975. The value for `C[C@@H]1CC[C@@]2(OC1)O[C@H]1C[C@H]3[C@H]4C[C@@H](O)[C@H]5C[C@@H](O[C@@H]6O[C@H](CO)[C@H](O[C@@H]7O[C@H](CO)[C@@H](O)[C@H](O[C@@H]8OC[C@@H](O)[C@H](O)[C@H]8O)[C@H]7O[C@@H]7O[C@H](CO)[C@@H](O[C@@H]8O[C@H](CO)[C@@H](O)[C@H](O)[C@H]8O)[C@H](O)[C@H]7O)[C@H](O)[C@H]6O)CC[C@]5(C)[C@@H]4CC[C@]3(C)[C@H]1[C@@H]2C` was inactive: 0.975; that for `C[C@@H]1CN([C@@H](C)CO)S(=O)(=O)c2ccc(Br)cc2O[C@@H]1CN(C)C(=O)c1cnccn1` was inactive: 1.

Consider `C[C@@H]1CCCCO[C@@H](CN(C)Cc2ccc(C(F)(F)F)cc2)[C@@H](C)CN([C@H](C)CO)C(=O)c2cc(N(C)C)ccc2O1`, for which the relative growth is inactive: 1.03.

Take `COc1cccc(S(=O)(=O)N[C@@H]2CC[C@@H](CC(=O)NC3CCC3)O[C@H]2CO)c1`: the relative growth was inactive: 1.02. `C[C@@H]1CCCCO[C@@H](CN(C)S(=O)(=O)c2ccc(Cl)cc2)[C@H](C)CN([C@@H](C)CO)C(=O)c2cc(NC(=O)Nc3ccc(C(F)(F)F)cc3)ccc2O1`: the relative growth is inactive: 1.06. For `O=C1CCCC2C3CCC[N+]4([O-])CCCC(CN12)C34` (configuration not stated), the relative growth is inactive: 1. Consider `C#CCCCCCCCCCCCC(O)CC(O)CO` (configuration not stated), for which the relative growth is inactive: 0.801.

Take `CCCNC(=O)N(C)C[C@H]1Oc2cc(C#Cc3cccc(F)c3)ccc2S(=O)(=O)N([C@@H](C)CO)C[C@H]1C`: the relative growth is inactive: 0.992. `COc1ccc(-c2cnc3c(c2)C(=O)N([C@H](C)CO)C[C@H](C)[C@@H](CN(C)C(=O)Cc2cccnc2)O3)cc1`: the relative growth was inactive: 1.01.

On to `COc1ccc(S(=O)(=O)N(C)C[C@H]2Oc3ccc(NC(=O)CCN4CCOCC4)cc3C(=O)N([C@@H](C)CO)C[C@H]2C)cc1`, for which the relative growth is inactive: 1.02.

`CC1OC(OCC2OC(Oc3c(-c4ccc(O)c(O)c4)oc4cc(O)cc(O)c4c3=O)C(O)C(O)C2O)C(O)C(O)C1O` (configuration not stated): the relative growth is inactive: 1.05. Consider `Cc1noc(C)c1NC(=O)Nc1ccc2c(c1)CC(=O)N([C@H](C)CO)C[C@H](C)[C@@H](CN(C)Cc1ccc(-c3ccccc3)cc1)O2`, for which the relative growth is inactive: 0.968.

Regarding `CO[C@@H]1CN(C)C(=O)c2cc(NC(C)=O)ccc2OC[C@@H](C)N(S(=O)(=O)c2cn(C)cn2)C[C@@H]1C`, the relative growth was inactive: 1.01.

In the case of `C[C@@H]1CN([C@@H](C)CO)C(=O)c2cc(NS(C)(=O)=O)ccc2O[C@@H](C)CCCCO[C@@H]1CN(C)S(=O)(=O)c1cccs1`, the relative growth is inactive: 0.921. Consider `C[C@@H]1CN([C@@H](C)CO)C(=O)c2cc(NC(=O)Nc3ccc(C(F)(F)F)cc3)ccc2O[C@@H](C)CCCCO[C@@H]1CN(C)S(=O)(=O)c1ccccc1`, for which the relative growth was inactive: 1.02. The value for `C[C@H]1CN([C@@H](C)CO)C(=O)Cc2cc(NC(=O)NC3CCCCC3)ccc2O[C@H]1CN(C)C(=O)Nc1cccc2ccccc12` was inactive: 0.925; that for `C[C@@H]1CCCCO[C@H](CN(C)Cc2ccc(C(=O)O)cc2)[C@H](C)CN([C@H](C)CO)C(=O)c2cc(NS(=O)(=O)c3ccccc3)ccc2O1` was inactive: 0.991. Regarding `C[C@@H]1CCCCO[C@H](CN(C)C(=O)Nc2ccc3c(c2)OCO3)[C@@H](C)CN([C@H](C)CO)C(=O)c2cc(NC(=O)CCC(F)(F)F)ccc2O1`, the relative growth was inactive: 0.981. In the case of `C[C@@H]1CN([C@H](C)CO)C(=O)c2cccc(NC(=O)Nc3ccc(C(F)(F)F)cc3)c2O[C@@H]1CN(C)C(=O)Nc1cccc2ccccc12`, the relative growth is inactive: 0.884. On to `C[C@@H]1CCCCO[C@@H](CN(C)CC2CC2)[C@H](C)CN([C@@H](C)CO)C(=O)c2cc(NS(=O)(=O)c3ccc(Cl)cc3)ccc2O1`, for which the relative growth was inactive: 0.997. Turning to `CCC(C)C1OC2(C=CC1C)CC1CC(CC=C(C)C(OC3CC(OC)C(OC4CC(OC)C(NC(C)=O)C(C)O4)C(C)O3)C(C)C=CC=C3COC4C(O)C(C)=CC(C(=O)O1)C34O)O2` (configuration not stated), the relative growth was inactive: 0.997. As for `NCC[C@@H]1CC[C@@H](NC(=O)c2ccccc2F)[C@H](CO)O1`, the relative growth is inactive: 1.03. The value for `Cc1ccc(S(=O)(=O)N(C)C[C@@H]2OCCCC[C@@H](C)Oc3ccc(NC(=O)Nc4ccc(F)cc4)cc3C(=O)N([C@H](C)CO)C[C@@H]2C)cc1` was inactive: 0.997; that for `C[C@@H]1CN([C@H](C)CO)S(=O)(=O)c2ccc(C#CCN(C)C)cc2O[C@H]1CN(C)S(C)(=O)=O` was inactive: 0.982. On to `Cc1noc(C)c1NC(=O)N(C)C[C@@H]1Oc2ccc(NC(=O)CCN3CCOCC3)cc2CC(=O)N([C@@H](C)CO)C[C@H]1C`, for which the relative growth was inactive: 1. On to `CCS(=O)(=O)N1C[C@]2(CN(C2)C(=O)Nc2ccc3c(c2)OCO3)c2c(n(c3cc(ccc23)OC)C)[C@H]1CO`, for which the relative growth is inactive: 0.979. For `COCC#Cc1cnc2c(c1)C(=O)N([C@@H](C)CO)C[C@H](C)[C@@H](CN(C)C(C)=O)O2`, the relative growth was inactive: 0.984. For the compound `CCCC(=O)Nc1ccc2c(c1)C(=O)N(C)C[C@H](OC)[C@H](C)CN(Cc1ccc(-c3ccccn3)cc1)[C@@H](C)CO2`, the relative growth is inactive: 0.997. With `CCCN(C)C[C@@H]1OCCCC[C@@H](C)Oc2ccc(NC(=O)Nc3cccc4ccccc34)cc2C(=O)N([C@H](C)CO)C[C@@H]1C`, the relative growth is inactive: 0.974.

Turning to `C[C@H]1CCCCO[C@H](CN(C)C(=O)Nc2ccc3c(c2)OCO3)[C@@H](C)CN([C@@H](C)CO)C(=O)c2cc(NC(=O)CCC(F)(F)F)ccc2O1`, the relative growth was inactive: 0.955.

Turning to `COCC(=O)Nc1ccc2c(c1)C(=O)N(C)C[C@@H](OC)[C@H](C)CN(C(=O)Cc1ccccn1)[C@@H](C)CO2`, the relative growth is inactive: 0.986. To `C[C@@H]1CN([C@H](C)CO)C(=O)c2cc(NC(=O)Cn3cnnn3)ccc2O[C@H]1CN(C)S(=O)(=O)c1ccccc1` belongs inactive: 0.979; to `O=C(C[C@@H]1CC[C@@H]2[C@H](COC[C@H](O)CN2C(=O)c2ccccn2)O1)NC1CCC1`, inactive: 0.991; to `C[C@@H]1CN([C@@H](C)CO)C(=O)Cc2cc(NC(=O)Nc3cccc4ccccc34)ccc2O[C@@H]1CN(C)Cc1ccc(Oc2ccccc2)cc1`, inactive: 1.02. The value for `CNC[C@H]1Oc2ccc(NS(=O)(=O)c3cn(C)cn3)cc2C(=O)N([C@@H](C)CO)C[C@H]1C` was inactive: 0.991. With `C[C@@H]1CCCCO[C@@H](CN(C)Cc2ccc3c(c2)OCO3)[C@H](C)CN([C@@H](C)CO)C(=O)c2cc(NC(=O)Nc3ccc(F)cc3)ccc2O1`, the relative growth is inactive: 0.993. As to `COc1cc2ccc(=O)oc2c(OC)c1OC`, the relative growth was inactive: 1.02.

`C[C@@H]1CCCCO[C@@H](CN(C)Cc2ccc(Cl)c(Cl)c2)[C@@H](C)CN([C@@H](C)CO)C(=O)c2cc(NC(=O)Nc3cccc4ccccc34)ccc2O1`: the relative growth is inactive: 0.964. For the compound `C[C@H]1CN([C@@H](C)CO)S(=O)(=O)c2ccc(C#CC3(O)CCCC3)cc2O[C@H]1CN(C)C(=O)c1cccnc1`, the relative growth was inactive: 0.994.

On to `O=C(CS)NCCCCCCNC(=O)[C@@H]1C[C@@H]2C(=O)N[C@@H](Cc3ccccc3)C(=O)N2[C@@H]1c1cccc(OCCO)c1`, for which the relative growth is inactive: 1.01. As to `Cc1noc(C)c1NC(=O)N(C)C[C@H]1OCCCC[C@H](C)Oc2ccc(NS(=O)(=O)c3ccc(Cl)cc3)cc2C(=O)N([C@H](C)CO)C[C@@H]1C`, the relative growth was inactive: 1.

`CN(Cc1ccccc1)C[C@H]1C[C@@H](c2ccc(CO)cc2)O[C@H](c2ccc(NC(=O)CCCCCCC(=O)NO)cc2)O1`: the relative growth was inactive: 0.977. With `CN1C(=O)c2cc(NC(=O)c3cccs3)ccc2OC[C@@H]2O[C@@H](CC(=O)NCC(F)(F)F)CC[C@@H]21`, the relative growth is inactive: 0.993. Regarding `O=C(CN1CCOCC1)NCC[C@H]1CC[C@H](NS(=O)(=O)c2ccc(Cl)cc2)[C@@H](CO)O1`, the relative growth was inactive: 0.996. With `Cc1noc(C)c1S(=O)(=O)N(C)C[C@H]1OCCCC[C@@H](C)Oc2ccc(NS(=O)(=O)c3cn(C)cn3)cc2C(=O)N([C@@H](C)CO)C[C@H]1C`, the relative growth is inactive: 0.977. To `CN(C)CCCNC(=O)C[C@@H]1CC[C@H]2[C@@H](COC[C@@H](O)CN2S(=O)(=O)c2ccc(Cl)cc2)O1` belongs inactive: 0.995; to `C[C@H]1CN([C@@H](C)CO)C(=O)Cc2cc(NC(=O)CCCN(C)C)ccc2O[C@H]1CN(C)S(=O)(=O)c1ccc(F)cc1`, inactive: 0.975; to `Cc1occc1CN`, inactive: 0.984. On to `O=C(C[C@@H]1CC=CC[C@@H](NC(=O)OCC2c3ccccc3-c3ccccc32)C(=O)OC[C@@H](Cc2c[nH]c3ccccc23)NC1=O)N[C@H](CO)Cc1ccccc1`, for which the relative growth is inactive: 0.96. On to `O=C(C[C@H]1C=C[C@H](NC(=O)CN2CCOCC2)[C@@H](CO)O1)NCCc1ccccc1`, for which the relative growth was inactive: 0.982.
